# Test results from PMC9911399, “Two distinct binding modes provide the RNA-binding protein RbFox with extraordinary sequence specificity”.
# Numbering of substitutions follows the chain as printed; changes in the protein carry UniProt numbers. The list shows a part of the results.
# T1: RBFOX1 RRM (Homo sapiens, UniProt Q9NWB1 109-208)
# T1 sequence: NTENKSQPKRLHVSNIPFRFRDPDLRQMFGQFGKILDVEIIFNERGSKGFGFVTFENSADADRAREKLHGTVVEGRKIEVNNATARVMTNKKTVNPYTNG
# B1: UUUAAAU (DNA:RNA)
# RNA: GGGAGACCGGAAUUCAGAUUGUCCUUUAAAUUUAAAUCCCGUCGUAGCCACCA
# DNA 1: CAATCTGAATTCCGGTCTCCC
# DNA 2: TGGTGGCTACGACGGGATT
# B2: CGUUUCC (DNA:RNA)
# RNA: B1 RNA with U25C, U26G, A28U, A29U, A30C, U31C
# DNA 1: CAATCTGAATTCCGGTCTCCC
# DNA 2: TGGTGGCTACGACGGGATT
# B3: CGUUCUG (DNA:RNA)
# RNA: B1 RNA with U25C, U26G, A28U, A29C, A30U, U31G
# DNA 1: CAATCTGAATTCCGGTCTCCC
# DNA 2: TGGTGGCTACGACGGGATT
# B4: AGUUCUU (DNA:RNA)
# RNA: B1 RNA with U25A, U26G, A28U, A29C, A30U
# DNA 1: CAATCTGAATTCCGGTCTCCC
# DNA 2: TGGTGGCTACGACGGGATT
# B5: CUGGUAU (DNA:RNA)
# RNA: B1 RNA with U25C, U27G, A28G, A29U
# DNA 1: CAATCTGAATTCCGGTCTCCC
# DNA 2: TGGTGGCTACGACGGGATT
# B6: GUCAAUC (DNA:RNA)
# RNA: B1 RNA with U25G, U27C, A30U, U31C
# DNA 1: CAATCTGAATTCCGGTCTCCC
# DNA 2: TGGTGGCTACGACGGGATT
# B7: UAAACAA (DNA:RNA)
# RNA: B1 RNA with U26A, U27A, A29C, U31A
# DNA 1: CAATCTGAATTCCGGTCTCCC
# DNA 2: TGGTGGCTACGACGGGATT
# B8: GUCUUCG (DNA:RNA)
# RNA: B1 RNA with U25G, U27C, A28U, A29U, A30C, U31G
# DNA 1: CAATCTGAATTCCGGTCTCCC
# DNA 2: TGGTGGCTACGACGGGATT
# B9: CCCUACU (DNA:RNA)
# RNA: B1 RNA with U25C, U26C, U27C, A28U, A30C
# DNA 1: CAATCTGAATTCCGGTCTCCC
# DNA 2: TGGTGGCTACGACGGGATT
# Molecular target: T1, RBFOX1 RRM
# Experiment: EMSA; HiTS-Eq, 1 nM pool, 10 min; buffer printed only for the single-RNA assays: 10 mM Tris pH 7.5, 150 mM NaCl, 3.4 mM EDTA, 0.001% NP-40, 30 C
# Settings: tags: His6 N-terminal (pET28a); label: 5' 32P
# Summary of the method: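 Purified RbFox RRM, wild type or mutant, was incubated for 10 min in 50 µL with 1 nM of a 5′-radiolabelled RNA pool carrying 7 randomized nucleotides, whose flanks were annealed to DNA oligonucleotides, over a series of increasing protein concentrations. Unbound RNA was resolved on 8% native PAGE, cut out, reverse-transcribed, barcoded by PCR and sequenced on an Illumina HiSeq 2500. Relative association constants were derived from changes in read counts for each RNA species versus the control reaction and normalised to the cognate motif.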
row,Binder,binding signal
1,B1,0.00331 KA relative to UGCAUGU
2,B2,0.0127 KA relative to UGCAUGU
3,B3,0.0207 KA relative to UGCAUGU
4,B4,0.00753 KA relative to UGCAUGU
5,B5,0.0153 KA relative to UGCAUGU
6,B6,0.00781 KA relative to UGCAUGU
7,B7,0.000916 KA relative to UGCAUGU
8,B8,0.0145 KA relative to UGCAUGU
9,B9,0.00609 KA relative to UGCAUGU
